{
  "source": "PubChem BioAssay AID1347417",
  "about": "(National Center for Advancing Translational Sciences (NCATS), 2020)",
  "note": "In all, about 120,000 compounds went through this assay and about 5,300 (4.4%) were called active. This list was built around the results that the source calls inconclusive (neither active nor inactive); the mix of calls is not that of the screen. Calls follow the shape of the dose curve; as a rule, active = well fitted inhibition curve with a large enough effect; inconclusive = small, poorly fitted or top-dose-only effect; inactive = no such curve, though single readings can be large or run the other way. Potencies beside an inconclusive call are fits to weak or partial responses and may not hold up. Potency is read from the fitted curve at half-maximal effect; tags tell the direction and shape of the fitted curve.",
  "data": [
    {"assay": "qHTS Primary assay for Inhibitors of Plasmodium falciparum Dd2 growth in vitro; also: nearly all actives have a fitted effect of over 65% in size;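 as to activity, negative = inhibition: plate controls were DMSO vehicle for no effect and reference drug for full effect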", "details": "P. falciparum Dd2 growth, SYBR Green, 72 h; activity, negative = inhibition: at 28.9 µM (top of the series) unless noted; series mostly up to 28.9 µM", "how_it_was_run": "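Readout: SYBR Green fluorescence, 485 nm excitation, 535 nm emission, after ~16 h lysis at 37C. Before that, Dd2-infected red cells (2.5% hematocrit) grew 72 h with compound, 29 uM top final concentration.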", "values": [
      {"smiles": "O=C1COc2cc(C(=O)NCC3CCOc4ccccc4C3)ccc2N1", "note": "(stereo unspecified)", "Potency": "inconclusive: 17.8 µM [inhibitor, single point]"},
      {"smiles": "COc1ccc(-c2nc3c(C)cccc3cc2CN2CCC[C@H]2CO)cc1OC", "Potency": "inconclusive: 11.2 µM [inhibitor, single point]"},
      {"smiles": "CCOc1ccc(CN2C[C@@H](NC(=O)c3cccnc3)C[C@H]2CO)cc1", "Potency": "inconclusive: 4.47 µM [inhibitor, partial curve, poor fit]"},
      {"smiles": "COc1cccc(CC(=O)N2CCC(Cn3c(C)cnc3C3CCC3)CC2)c1", "Potency": "inconclusive: 10 µM [inhibitor, single point]"},
      {"smiles": "COc1cc(CN2CCC(C)(NC(C)=O)CC2)cc(Nc2ccccc2)c1", "Potency": "inconclusive: 10 µM [inhibitor, partial curve]"},
      {"smiles": "O=C(NC1CCN(c2cc(-c3cccs3)[nH]n2)C1)c1cccc2[nH]ccc12", "note": "(stereo unspecified)", "Potency": "inactive"},
      {"smiles": "COc1ccc(C(=O)NCc2cccnc2N(C)C2CCCCC2)o1", "Potency": "inactive"},
      {"smiles": "CC(=O)N1CCC(N2CCC[C@H]2c2nc(-c3ccc(-n4ccnc4)nc3)no2)CC1", "Potency": "inactive"},
      {"smiles": "CCOC(=O)c1cccc(NC(=O)C2CCN(S(=O)(=O)c3ccc4c(c3)oc(=O)n4C)CC2)c1", "Potency": "inconclusive: 17.8 µM [inhibitor, single point]"},
      {"smiles": "OC1(CNc2cc(C(F)(F)F)nc(N3CCCC3)n2)CCCNCC1", "note": "(stereo unspecified)", "Potency": "inconclusive: 10 µM [inhibitor, partial curve]"},
      {"smiles": "CN1Cc2ccc(C(=O)Nc3ccc4cn[nH]c4c3)cc2OCC1=O", "Potency": "inconclusive: 12.6 µM [inhibitor, single point]"},
      {"smiles": "O=S(=O)(c1ccccc1)c1nc(-c2ccc(Cl)cc2Cl)oc1N1CCCCCC1", "Potency": "inconclusive: 17.8 µM [inhibitor, single point]"},
      {"smiles": "CN(C)c1ccc(C(=O)N2CCCC(COc3ccccc3C(=O)N3CCCCC3)C2)cc1", "note": "(stereo unspecified)", "Potency": "inconclusive: 7.08 µM [inhibitor, partial curve, poor fit]"},
      {"smiles": "O=C(NC1CC1)c1nc(-c2cccnc2)c2ccccn12", "Potency": "inactive"},
      {"smiles": "CCn1ccc(C(=O)N2CCC3(CC2)CCC3(O)CC)n1", "note": "(stereo unspecified)", "Potency": "inconclusive: 8.91 µM [inhibitor, partial curve, poor fit]"},
      {"smiles": "CC(C)c1ccc(CNc2nc(-c3ccco3)nn2S(=O)(=O)c2ccc3ccccc3c2)cc1", "Potency": "inconclusive: 12.6 µM [inhibitor, partial curve, poor fit]"},
      {"smiles": "N[S+](=O)([O-])c1ccc2c(c1)OCCN(Cc1ccccc1Cl)C2", "Potency": "inconclusive: 31.6 µM [inhibitor, single point]"},
      {"smiles": "O=C1Nc2ccc(-c3ccccc3F)cc2C(=O)N2CCN(C(=O)NC3CCCCC3)C[C@H]12", "Potency": "inconclusive: 2.82 µM [inhibitor, full curve, poor fit]"},
      {"smiles": "O=C(NCCC1CCN(C(=O)Nc2ccccc2)CC1)c1cccs1", "Potency": "inconclusive: 12.6 µM [inhibitor, single point]"},
      {"smiles": "CCN1CCN(c2ccc(NS(=O)(=O)c3c(C)nc4sccn4c3=O)cc2Cl)CC1", "Potency": "inactive"},
      {"smiles": "CCOc1ccc(-n2c(C)nc3cc(C(=O)NCCC4=CCCCC4)ccc32)cc1", "Potency": "inactive"},
      {"smiles": "CNC(=O)CCn1ncc2cc(OCc3ccccc3-c3ccc(OC)cc3C)ccc21", "Potency": "active: 5.62 µM"},
      {"smiles": "CCC(=O)N1Cc2ccccc2CC2(CCN(Cc3ccc(NC(C)=O)cc3)C2)C1", "note": "(stereo unspecified)", "Potency": "inconclusive: 7.94 µM [inhibitor, single point]"},
      {"smiles": "Clc1ccc(-c2cnc([C@@H]3COCCN3CC3CC3)[nH]2)s1", "Potency": "inactive"},
      {"smiles": "CCC1CCCCN1CC(=O)N1CCCc2c1c(=O)oc1ccc(OCc3ccccc3)cc21", "note": "(stereo unspecified)", "Potency": "inconclusive: 11.2 µM [inhibitor, single point]"},
      {"smiles": "CCOc1ccc(-c2cc(OC(=O)c3ccccc3)c3c(C)oc(C)c3c(=O)c2)cc1", "Potency": "inconclusive: 17.8 µM [inhibitor, single point]"},
      {"smiles": "O=C1CCN(C(=O)c2ccsc2)CCCC(C(=O)N2CCN(c3ccccn3)CC2)CCN1", "note": "(stereo unspecified)", "Potency": "inactive"},
      {"smiles": "Cc1ccc(NC(=O)N(Cc2cn(C)c3ccccc23)C2CCCCC2)cc1C", "Potency": "active: 3.55 µM"},
      {"smiles": "CN(C)C(=O)[C@H]1CN2CCC1C[C@@H]2Cn1cc(CCO)nn1", "note": "(stereo partly specified)", "Potency": "inactive"},
      {"smiles": "O=C(Nc1ccccc1F)N1CCC(N2C(=O)C3(CCCCC3)C2c2ccccc2)CC1", "note": "(stereo unspecified)", "Potency": "inactive"},
      {"smiles": "Cc1cccc(O[C@H]2COCCN(Cc3nccn3C)C2)n1", "Potency": "active: 11.2 µM"},
      {"smiles": "c1ccc(C2CN3CCCC3CN2)cc1", "note": "(stereo unspecified)", "Potency": "inconclusive: 31.6 µM [inhibitor, single point]"},
      {"smiles": "CCOc1ccc2c(n1)CCN(C(=O)Nc1cccc(CC)c1)C2", "Potency": "inconclusive: 11.2 µM [inhibitor, partial curve, poor fit]"},
      {"smiles": "COc1ccc(-c2cc(-c3ccncc3)c3cncn3c2)cc1OC", "Potency": "inconclusive: 2.82 µM [inhibitor, full curve, poor fit]"},
      {"smiles": "CN1c2cc(C(=O)Nc3ccc(Br)cc3)ccc2C(=O)N2CCCCC21", "note": "(stereo unspecified)", "Potency": "inconclusive: 7.94 µM [inhibitor, partial curve, poor fit]"},
      {"smiles": "Cc1ccc(Nc2c(-c3ccncc3)nc3ccc(C)cn23)cc1", "Potency": "inconclusive: 17.8 µM [inhibitor, single point]"},
      {"smiles": "CCOc1ccc(OCC)c(S(=O)(=O)N2CCN(c3cccc(C)c3C)CC2)c1", "Potency": "inconclusive: 17.8 µM [inhibitor, single point]"},
      {"smiles": "COc1cc2c(cc1OC)C(COc1ccc(F)cc1)N(C(=O)Cc1ccc(F)cc1)CC2", "note": "(stereo unspecified)", "Potency": "inconclusive: 11.2 µM [inhibitor, single point]"},
      {"smiles": "COc1ccc(CN2C=C(C(=O)OCc3noc(-c4ccc(OC)cc4)n3)C(C)=NS2(=O)=O)cc1", "Potency": "inconclusive: 11.2 µM [inhibitor, single point]"},
      {"smiles": "CCN(Cc1ccccc1)c1ncncc1-c1nc(-c2ccccc2)no1", "Potency": "inconclusive: 1.26 µM [inhibitor, full curve, poor fit]"},
      {"smiles": "Cc1ccc2oc3c(c(=O)c2c1)C(c1ccccc1F)N(CCCN1CCOCC1)C3=O", "note": "(stereo unspecified)", "Potency": "inconclusive: 12.6 µM [inhibitor, partial curve, poor fit]"},
      {"smiles": "O=C(NCc1ccc(F)cc1Cl)C1CCN(C(=O)c2ncn3c2COC(c2ccccc2)C3)CC1", "note": "(stereo unspecified)", "Potency": "inactive"},
      {"smiles": "COc1cccc(C(=O)Nc2ccc3c(c2)CN(Cc2ccc(OC)cc2OC)C(=O)CO3)c1", "Potency": "inconclusive: 3.98 µM [inhibitor, single point]"},
      {"smiles": "Cc1cc2ccccc2n1-c1ccc(C(=O)N2CCCCC2)s1", "Potency": "inconclusive: 17.8 µM [inhibitor, single point]"},
      {"smiles": "Cc1nc(-c2ccc(F)cc2)n(Cc2cccc(Cl)c2)c(=O)c1CCO", "Potency": "inconclusive: 17.8 µM [inhibitor, single point]"},
      {"smiles": "CCCN(CCC)CCCNC(=O)Cn1ncc2c3ccccc3n(Cc3ccc(F)cc3)c2c1=O", "Potency": "inconclusive: 2.51 µM [inhibitor, full curve]"},
      {"smiles": "COc1ccc(-c2ccccc2NC(=O)C2CCCN(CC=C(C)C)C2)cc1", "note": "(stereo unspecified)", "Potency": "active: 7.94 µM"},
      {"smiles": "CCOC(=O)C1CCCN(C(=O)Cc2ccc(N(Cc3ccc(C)cc3)C(=O)c3ccco3)cc2)C1", "note": "(stereo unspecified)", "Potency": "inconclusive: 2.82 µM [inhibitor, partial curve, poor fit]"},
      {"smiles": "COc1cccc(OCc2nc3c(n2Cc2ccccc2)C(=O)N(Cc2cccc(Cl)c2)CCN3)c1", "Potency": "active: 12.6 µM"},
      {"smiles": "Cc1cccc(C(=O)N2CCCC(n3cc(-c4nc(C(C)C)no4)nn3)C2)c1", "note": "(stereo unspecified)", "Potency": "inactive"},
      {"smiles": "COc1cc(=O)n2c(c1C(=O)Nc1cccc(Cl)c1C)CCCC2", "Potency": "inactive"},
      {"smiles": "CC[C@@H]1[C@@H](NC(=O)CC2Cc3ccccc3C2)[C@@H]2CCO[C@H]12", "Potency": "inactive"},
      {"smiles": "CC(C)(CC(=O)OCC(=O)Nc1ccc(F)c(Cl)c1)CC1=NS(=O)(=O)c2ccccc2N1", "Potency": "inconclusive: 17.8 µM [inhibitor, single point]"},
      {"smiles": "N#Cc1ccc(CN2CCc3nc(N4CCc5ccccc5C4)[nH]c(=O)c3CC2)cc1", "activity, negative = inhibition": "inactive: 46.3% [at 5.79 µM]"},
      {"smiles": "CCC(C)Oc1ccc(CNC(=O)c2cn(CCN)nn2)cc1", "note": "(stereo unspecified)", "Potency": "inactive"},
      {"smiles": "Cc1ccc2c(n1)N(C)[C@H](CO)CCN(Cc1ccco1)C2", "Potency": "inconclusive: 31.6 µM [inhibitor, single point]"},
      {"smiles": "CCOC(=O)c1[nH]c2ccccc2c1NC(=O)c1ccc(OC(C)C)cc1", "Potency": "inconclusive: 11.2 µM [inhibitor, single point]"},
      {"smiles": "CC(C)(C)c1ccc(-c2cc(C[C@H]3CNCC[C@H]3CC(=O)N3CCN(Cc4ccccc4)CC3)no2)cc1", "Potency": "inconclusive: 3.16 µM [inhibitor, single point]"},
      {"smiles": "CN(Cc1cccnc1)C1CN(C(=O)c2cnn(C)c2)C1", "Potency": "inactive"},
      {"smiles": "O=C(C1CN(c2cccc(Cl)c2)C(=O)N1)N1CCCC1", "note": "(stereo unspecified)", "Potency": "inactive"},
      {"smiles": "COc1ccc(NC(=O)C2CN(S(=O)(=O)C3CC3)CC23CCCCC3)cc1", "note": "(stereo unspecified)", "Potency": "inconclusive: 6.31 µM [inhibitor, partial curve, poor fit]"},
      {"smiles": "CCOC(=O)c1ccc2c(c1)N(Cc1cccc([N+](=O)[O-])c1)C(=O)c1ccccc1S2", "Potency": "inconclusive: 11.2 µM [inhibitor, single point]"},
      {"smiles": "Cn1nc(-c2ccc(OCC(=O)Nc3ccccc3)cc2)c2ccccc2c1=O", "Potency": "inconclusive: 10 µM [inhibitor, single point]"},
      {"smiles": "Cn1nc(C(=O)NC2CC(c3cc(N4CCCC4)ncn3)C2)ccc1=O", "note": "(stereo unspecified)", "Potency": "inconclusive: 3.55 µM [inhibitor, partial curve, poor fit]"},
      {"smiles": "O=C(Cn1c(=O)nc(-c2ccccc2)c2cc(Cl)ccc21)NCc1ccccc1", "Potency": "inconclusive: 17.8 µM [inhibitor, single point]"},
      {"smiles": "Cc1ccc(S(=O)(=O)N2CCCC(c3nc4c(nnn4Cc4ccc(OC(F)(F)F)cc4)c(=O)[nH]3)C2)cc1", "note": "(stereo unspecified)", "Potency": "inconclusive: 17.8 µM [inhibitor, single point]"}
    ]}
  ]
}
